Screen size: about 71,000 compounds; about 1,800 (2.5%) were called active. The inconclusive results got no clear call from the source; some entries with a clear call stand among them for comparison. Calls follow the shape of the dose curve; as a rule, active = well fitted activation curve with a large enough effect in the signal ratio, with a control signal flat (not every such curve was filed as active); inconclusive = small, poorly fitted or top-dose-only effect, or effect the other way, or a change in a side signal; inactive = flat fitted curve, though single readings scatter; the % refers to the signal ratio. Where the call is inconclusive, the potency comes from a doubtful curve fit.
Assay: Cell signaling CRE-BLA (Fsk stim); as to activity change, negative = inhibition: % of control where 0% means no effect
Conditions: CHO CRE-bla reporter (cAMP response element driving beta-lactamase), forskolin EC10, beta-lactamase ratio; activity change, negative = inhibition: at 38.2 µM (top of the series) unless noted
Method in brief: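 CRE-bla CHO cells stimulated with EC10 NKH 477 (water-soluble forskolin) and compound titrations, 3 h at 37C; beta-lactamase read with CCF4 after 2 h at room temperature. Activity from 460/530 nm emission ratio, AC50 values for positive or negative modulation.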
Potency is read from the fitted curve at half-maximal effect; tags tell the direction and shape of the fitted curve.

SMILES	Potency	activity change, negative = inhibition
CNCC[C@@H](Oc1ccccc1C)c1ccccc1	inconclusive: 15.8 µM [falling, single point]	
CCCCn1c(SCC(=O)c2ccc3c(c2)OCCO3)nnc1-c1ccco1		inconclusive: 26.7%
O=C(Nc1ccc2oc(-c3cccnc3)nc2c1)c1cccnc1		inactive: 7.11%
COC(=O)c1cn(CC(=O)NC2CCCCC2)c2ccccc12		inactive: 0.629%
COc1ccc2c(c1)[n+]([O-])c(/C(C)=N/NC(N)=S)c(C)[n+]2[O-]		inconclusive: 17.7% [at 7.6 µM]
Cc1cc(C)nc(N2CCC(C(=O)NCCc3ccccc3)CC2)n1		inactive: -5.63%
C=CCc1cccc2cc(NC(C)=O)c(=O)oc12	inconclusive: 7.94 µM [rising, partial curve]	
O=C(CSc1nc2ccccc2c2nc3ccccc3n12)NCc1ccco1	inconclusive: 5.01 µM [rising, partial curve]	
COc1ccc2cc(C#N)c(NC(C)C)nc2c1	inconclusive: 10 µM [rising, partial curve]	
Cc1cc(C)n2cc(CSc3nnnn3-c3ccc(Cl)cc3)nc2n1	inconclusive: 10 µM [rising, partial curve]	
COc1ccc(C(=O)/C=C/Nc2cc(C)on2)c(OC)c1	inconclusive: 12.6 µM [rising, single point]	
CCn1cc(C(=O)O)c(=O)c2cc(F)c(N3CCN[C@@H](C)C3)c(F)c21		inactive
O=c1c2ccccc2nc(-c2ccco2)n1Cc1ccccc1	inconclusive: 7.94 µM [rising, partial curve]	
C[C@@H]1O[C@@H](OC[C@@H]2O[C@@H](Oc3c(-c4ccc(O)c(O)c4)oc4cc(O)cc(O)c4c3=O)[C@H](O)[C@H](O)[C@@H]2O)[C@H](O)[C@H](O)[C@@H]1O		inconclusive: -5.61%
O=c1c2ccccc2nc(COc2ccccc2)n1/N=C/c1ccco1		inconclusive: -0.18%
COC(=O)c1ccc2c(c1)N(Cc1nc(-c3cccc(Cl)c3)oc1C)C(=O)C1CCCN21 (configuration not stated)	inconclusive: 12.6 µM [rising, single point]	
CCCOc1ccc(C2C(C(=O)OC)=CN(CCOC)C=C2C(=O)OC)cc1	inconclusive: 10 µM [rising, partial curve]	
O=S(=O)(c1ccc2c(c1)OCCO2)N1CCC(n2cnc3cc(F)ccc32)CC1	inconclusive: 3.16 µM [rising, single point]	
C=CCNC(=O)C1CCN(c2nc(C)cc(-c3ccccc3)n2)CC1		inactive: -5.21%
COc1ccc(CCn2c(-n3nc(C)cc3C)nc3c2c(=O)[nH]c(=O)n3C)cc1		inconclusive: -6.29%
C=CCc1cccc(CNc2nc3ccccc3n2CCN2CCOCC2)c1O		inconclusive: -5.15%
CN(C)c1nc(SCCOC(=O)Nc2ccccc2)nc(N(C)C)n1	inconclusive: 12.6 µM [rising, partial curve]	
Cc1ccc(C2CC(=O)NC3=C2C(=O)CCC3)cc1Br (configuration not stated)		inactive: 2.56%
N#Cc1sc2nc3c(c(-c4ccco4)c2c1N)CCCC3		inconclusive: 2.56%
COC(=O)N1CCC[C@@]2(CCN(c3ccncc3)C2)C1		inactive: -1.16%
CCOC(=O)C1C(=O)NC(SCC(=O)OC)=C(C#N)C1c1ccccc1OCC (configuration not stated)		inactive: -3.66%

SMILES	Potency	activity change, negative = inhibition
CC1CN(C(=O)CSc2ncnc3sccc23)CC(C)O1 (configuration not stated)		inconclusive: 17%
CN(C)c1ncc2ncc(=O)n(Cc3ccc(F)cc3)c2n1	inconclusive: 12.6 µM [rising, partial curve]	
O=C1C2=C(Nc3ccccc3SC2c2ccco2)c2ccccc21 (configuration not stated)		inconclusive: -19.8%
NC(=O)c1cnn2c1NC(c1ccc(F)cc1)CC2C(F)(F)F (configuration not stated)		inconclusive: 8.18%
O=C(Nc1nccs1)c1cccc(S(=O)(=O)N2CCOCC2)c1		inconclusive: 5.23% [at 7.6 µM]
c1ccc(Cn2nnnc2CN2CCCC2)cc1		inactive: -2.43%
CCOc1ccc2[nH]c(=O)c(CN(Cc3cccs3)C(CC)c3nnnn3C(C)(C)CC)cc2c1 (configuration not stated)		inactive: 14.8%
CCN1CCc2c(sc(NC(=O)c3ccc(S(=O)(=O)N4CCOCC4)cc3)c2C(=O)OC)C1	inconclusive: 10 µM [rising, partial curve]	
CCc1nc2ccccc2c(C(=O)OCC(=O)NCCCN2CCCC2=O)c1C		inconclusive: 11.1%
CC(=O)c1sc2nc(SCC(=O)N3CCCCC3)[nH]c(=O)c2c1C	inconclusive: 12.6 µM [falling, partial curve]	
CSCCC(NC(=O)C1CCC(C)CC1)C(=O)NCCN1CCOCC1 (configuration not stated)		inactive: 11.7%
CN1CCc2c(sc3nc(SCC(=O)N4CCOCC4)nc(N)c23)C1		inactive: 0.973%
COc1ccc(-n2nnnc2SCC(=O)Nc2ccc3c(c2)OCCO3)cc1OC	active: 10 µM	
C=C(CO)[C@H]1Cc2c(ccc3c(=O)c4c(oc23)COc2cc(OC)c(OC)cc2-4)O1	inconclusive: 7.94 µM [rising, partial curve, poor fit]	
Brc1ccccc1-c1nnc(CSc2nncn2-c2ccccc2)o1		inactive: -3.97%
CCOc1ccccc1NC(=O)CCC(=O)O		inconclusive: 16.9%
CCCC(=O)c1cc(F)c(N2CCN(S(=O)(=O)c3ccccc3)CC2)cc1C	inconclusive: 0.316 µM [rising, full curve]	
CC1CCN(Cc2ccc(NC(=O)CC3Oc4ccccc4NC3=O)cc2)CC1 (configuration not stated)		inactive: -3.13%
CC(C)(C)N(Cc1ccccc1)C(=O)c1ccc2c(c1)OCCO2		inconclusive: 11.9%
CCNc1cccc2c1C(=O)N(C)C2=O	inconclusive: 10 µM [rising, single point]	
CCN(CC)S(=O)(=O)c1cccc(C(=O)Nc2nc3cc4c(cc3s2)OCCO4)c1		inconclusive: 17.4%
COc1cc(CNc2cccc(F)c2)cc(Br)c1O		inactive: 10.8%
CC(=O)N1CCCc2cc(S(=O)(=O)N3CCc4ccccc4C3)ccc21		inconclusive: -6.7%
COC(=O)C1CC1C(NC(=O)[C@@H]1CCCN1)c1ccccc1 (some centres not stated)		inactive: -12.1%
CCc1cc2cc(C)cc(C)c2nc1SCC(=O)N1CCN(C(=O)c2ccco2)CC1		inconclusive: -2.13%
COc1ccccc1OCc1nc(C#N)c(N2CC(C)CC(C)C2)o1 (configuration not stated)	inconclusive: 15.8 µM [rising, partial curve]	
